Test results: the supplement of paper PMC4967469
IC50 is the fitted dose that halves viability relative to control wells, and lower means more sensitive; where the fit passes the top or lowest dose, that dose stands as a limit. AUC is the area under the same curve over the 256-fold range up to the top dose, as a fraction; values near 1 show little effect. For part of these data: A top dose marked as inferred was calculated from the reported fits. For part of these data: Where an entry number is given, a second screen of the drug exists; the two often differ.

What was measured:
Assay in all cases: Viability of human cancer cell lines after 72 h of drug (GDSC screen)
[1] = compound: O=S(=O)(O)c1ccc2cc(N=Nc3cc(S(=O)(=O)O)c4cccnc4c3O)ccc2c1 [NSC-87877]; settings: top dose 16 µM; top dose inferred
Procedure: (§1)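 Human cancer cell lines in 384-well plates, medium with 10% serum, drug for 72 h over a 256-fold dose range (nine 2-fold or five 4-fold steps up to the top dose). Adherent lines were fixed and stained with the nucleic acid dye Syto60, suspension lines read with resazurin; signal relative to control wells, capped at 0 and 100%. One two-parameter sigmoid per drug and line, fitted in a mixed model over all curves with the slope shared within a line.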

[2] = compound: Cc1ccc(NC(=O)c2ccc(CN3CCN(C)CC3)cc2)cc1Nc1nc(-c2cccnc2)cs1 [Masitinib]; settings: top dose 20 µM
Procedure: as §1

[3] = compound: CCCC(=O)OCc1ccc(OC(=O)/C=C(C)/C=C/C=C(C)/C=C/C2=C(C)CCCC2(C)C)cc1 [VNLG/124]; settings: top dose 5.12 µM; top dose inferred
Procedure: as §1

[4] = compound: O=C(Nc1cccc(Nc2ncc(Br)c(NCCc3cnc[nH]3)n2)c1)N1CCCC1 [BX-912]; settings: top dose 10.24 µM; top dose inferred
Procedure: as §1

[5] = compound: Cc1c(N)nc([C@H](CC(N)=O)NC[C@H](N)C(N)=O)nc1C(=O)N[C@H](C(=O)N[C@H](C)[C@@H](O)[C@H](C)C(=O)N[C@H](C(=O)NCCc1nc(-c2nc(C(=O)NCCC[S+](C)C)cs2)cs1)[C@@H](C)O)[C@@H](OC1OC(CO)C(O)C(O)C1OC1OC(CO)C(O)C(OC(N)=O)C1O)c1cnc[nH]1 [Bleomycin]
Procedure: as §1

[6] = compound: CC/C(=C(\c1ccccc1)c1ccc(OCCN(C)C)cc1)c1ccccc1 [Tamoxifen]; settings: top dose 5 µM
Procedure: as §1

[7] = compound: O=C(Nc1ccc(OC(F)(F)F)cc1)c1sccc1NCc1ccnc2ccccc12 [OSI-930]; settings: top dose 10.24 µM
Procedure: as §1

[8] = compound: O=C(/C=C/c1ccc(CN(CCO)CCc2c[nH]c3ccccc23)cc1)NO [LAQ824]; settings: top dose 1.024 µM; top dose inferred
Procedure: as §1

[9] = compound: COc1cc(N2CCC(C(N)=O)CC2)ccc1Nc1nc(N)c(Cl)c(Nc2ccccc2S(=O)(=O)C(C)C)n1 [HG-5-88-01]; settings: top dose 10 µM; top dose inferred
Procedure: as §1

[10] = top dose 50 µM, screen: GDSC drug entry 1378, top dose inferred
[11] = top dose 64 µM, screen: GDSC drug entry 190

Cell Line | AUC [1] | IC50 [1] [µM] | AUC [2] | IC50 [2] [µM] | AUC [3] | IC50 [3] [µM] | AUC [4] | IC50 [4] [µM] | AUC [5, 10] | IC50 [5, 10] [µM] | AUC [5, 11] | IC50 [5, 11] [µM] | AUC [6] | IC50 [6] [µM] | AUC [7] | IC50 [7] [µM] | AUC [8] | IC50 [8] [µM] | AUC [9] | IC50 [9] [µM]
NB7 (neuroblastoma, adherent) | 0.977 | > 16 | 0.79 | 9.38 | 0.98 | > 5.12 | 0.778 | 4.34 | 0.967 | > 50 | 0.888 | > 64 | 0.948 | > 5 | 0.887 | > 10.2 | 0.367 | 0.027 | 0.985 | > 10
NCI-H196 (small cell lung carcinoma, adherent) | 0.988 | > 16 | 0.912 | > 20 | 0.988 | > 5.12 | 0.665 | 1.88 | 0.942 | > 50 | 0.93 | > 64 | 0.978 | > 5 | 0.987 | > 10.2 | 0.538 | 0.0815 | 0.966 | > 10
NCI-H1355 (lung adenocarcinoma, adherent) | 0.97 | > 16 | 0.969 | > 20 | 0.974 | > 5.12 | 0.955 | > 10.2 | 0.856 | > 50 | 0.549 | 5.76 | 0.952 | > 5 | 0.956 | > 10.2 | 0.443 | 0.0417 | 0.7 | 2.97
NCI-H1688 (small cell lung carcinoma, adherent) | 0.985 | > 16 | 0.83 | 14.3 | 0.983 | > 5.12 | 0.941 | > 10.2 | 0.887 | > 50 | 0.899 | > 64 | 0.985 | > 5 | 0.976 | > 10.2 | 0.486 | 0.0585 | 0.978 | > 10
NCI-H1915 (large cell lung carcinoma, adherent) | 0.987 | > 16 | 0.908 | > 20 | 0.981 | > 5.12 | 0.911 | > 10.2 | 0.52 | 3.55 | 0.736 | 19.1 | 0.986 | > 5 | 0.964 | > 10.2 | 0.431 | 0.0413 | 0.986 | > 10
RS4-11 (leukaemia, suspension) | 0.989 | > 16 | 0.903 | > 20 | 0.988 | > 5.12 | 0.226 | 0.112 | 0.709 | 11.4 | 0.022 | < 0.25 | 0.97 | > 5 | 0.944 | > 10.2 | 0.169 | 0.00715 | 0.773 | 3.57
